According to the supplement of paper PMC4604168 (melanoma cell lines):
This is one part of the list. Single values are uncertain, as repeats are few or missing.

Experiments:
Test in all cases: cell count relative to DMSO control; melanoma cells; higher = more viable cells
Conditions in all cases: library dose: standard library concentration; 72 h
G361 = tested on: G361
IPC-298 = tested on: IPC-298
IST-MEL1 = tested on: IST-MEL1
LB2518-MEL = tested on: LB2518-MEL
LOXIMVI = tested on: LOXIMVI
MEL-HO = tested on: MEL-HO
MZ2-MEL = tested on: MZ2-MEL
MeWo = tested on: MeWo
RPMI7951 = tested on: RPMI7951
RVH-421 = tested on: RVH-421
SkMel28 = tested on: SkMel28
SkMel2 = tested on: SkMel2
SkMel30 = tested on: SkMel30
SkMel5 = tested on: SkMel5
UACC257 = tested on: UACC257
UACC62 = tested on: UACC62
WM115 = tested on: WM115
WM1716 = tested on: WM1716
WM3526 = tested on: WM3526
WM1745 = tested on: WM1745
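Note: cells treated in 1,536-well plates, then fixed and DAPI-stained, with nuclei counted from automated high-throughput microscope images.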

| Structure (SMILES) | cell count (G361) [%] | cell count (IPC-298) [%] | cell count (IST-MEL1) [%] | cell count (LB2518-MEL) [%] | cell count (LOXIMVI) [%] | cell count (MEL-HO) [%] | cell count (MZ2-MEL) [%] | cell count (MeWo) [%] | cell count (RPMI7951) [%] | cell count (RVH-421) [%] | cell count (SkMel28) [%] | cell count (SkMel2) [%] | cell count (SkMel30) [%] | cell count (SkMel5) [%] | cell count (UACC257) [%] | cell count (UACC62) [%] | cell count (WM115) [%] | cell count (WM1716) [%] | cell count (WM3526) [%] | cell count (WM1745) [%] |
| --- | --- | --- | --- | --- | --- | --- | --- | --- | --- | --- | --- | --- | --- | --- | --- | --- | --- | --- | --- | --- |
| Nc1nc(F)nc2c1ncn2[C@@H]1O[C@H](CO)[C@@H](O)[C@@H]1O [fludarabine] + C/C(O)=C(\C#N)C(=O)Nc1cc(Br)ccc1Br [LFM-A13] (first compound 1 µM, partner dose 10 µM) | 98.1 | 75 | 69 | 90.3 | 83.8 | 76.7 | 98.8 | 92.9 | 40.1 | 88.6 | 2.96 | 2.93 | 12.6 | 33.6 | 32 | 60 | 103 | 87.9 | 22.2 |  |
| Cn1cnc2c(F)c(Nc3ccc(Br)cc3Cl)c(C(=O)NOCCO)cc21 [selumetinib] + C/C(O)=C(\C#N)C(=O)Nc1cc(Br)ccc1Br [LFM-A13] (first compound 0.075 µM, partner dose 10 µM) | 69 | 58.3 | 85.3 | 54.6 | 96.2 | 79.2 | 87.5 | 83.2 | 106 | 79.9 | 44.8 | 61.6 | 67.1 | 75.4 | 100 | 48.9 | 86.8 | 80.2 | 52.7 |  |
| O=C(Nc1cc(C(F)(F)F)cc(C(F)(F)F)c1)c1cc(Cl)ccc1O + Cc1cc(SCc2sc(-c3ccc(C(F)(F)F)c(F)c3)nc2C)ccc1OCC(=O)O [GW0742] (first compound 0.08 µM, partner dose 10 µM) | 88.7 | 90.3 | 94.5 | 115 | 68.1 | 87.8 | 93.8 | 96.8 | 113 | 22.4 | 88.5 | 110 | 106 | 82.9 | 94.7 | 99.8 | 112 | 118 | 116 |  |
| CCN(CC)CCNC(=O)c1c(C)[nH]c(/C=C2\C(=O)Nc3ccc(F)cc32)c1C [sunitinib] + O=C(Oc1ccc([N+](=O)[O-])cc1)N1CCC(C(O)(c2ccc3c(c2)OCO3)c2ccc3c(c2)OCO3)CC1 [JZL184] (first compound 2 µM, partner dose 5 µM) | 83.7 | 88.6 | 88.4 | 66.8 | 229 | 87.4 | 102 | 61.2 | 57.5 | 121 | 72.7 | 85.7 | 59.1 | 52.3 | 113 | 39 | 64.8 | 75.9 | 54.9 |  |
| C=C(c1ccc(C(=O)O)cc1)c1cc2c(cc1C)C(C)(C)CCC2(C)C [Bexarotene] + Cc1cc(SCc2sc(-c3ccc(C(F)(F)F)c(F)c3)nc2C)ccc1OCC(=O)O [GW0742] (first compound 10 µM, partner dose 10 µM) | 85.6 | 82.2 | 86.1 | 124 | 108 | 81.6 | 104 | 73.1 | 92.7 | 78.4 | 72.5 | 85.3 | 114 | 105 | 93.1 | 69.5 | 116 | 90.2 | 92.6 |  |
| C[C@@H](N)c1ccc(C(=O)Nc2ccnc3[nH]ccc23)cc1 + C/C(O)=C(\C#N)C(=O)Nc1cc(Br)ccc1Br [LFM-A13] (first compound 2 µM, partner dose 10 µM) | 124 | 91.1 | 93.9 | 120 | 103 | 70.8 | 51.9 | 73.7 | 49.1 | 67.5 | 94.2 | 99.6 | 99.7 | 52.2 | 68.7 | 64.7 | 91.8 | 45.7 | 86.4 |  |
| CC1(C)CCC(c2ccc(Cl)cc2)=C(CN2CCN(c3ccc(C(=O)NS(=O)(=O)c4ccc(N[C@H](CCN5CCOCC5)CSc5ccccc5)c(S(=O)(=O)C(F)(F)F)c4)cc3)CC2)C1 + C/C(O)=C(\C#N)C(=O)Nc1cc(Br)ccc1Br [LFM-A13] (first compound 2 µM, partner dose 10 µM) | 80.5 | 83.5 | 68.4 | 78.5 | 252 | 58.6 | 75.2 | 92 | 55.7 | 72.8 | 84.2 | 80.1 | 39.8 | 96.4 | 24.9 | 57.7 | 69.6 | 63.1 | 67.7 |  |
| C[C@]1(O)C[C@@H](c2nc(-c3ccc4ccc(-c5ccccc5)nc4c3)c3c(N)nccn32)C1 + Cc1cc(SCc2sc(-c3ccc(C(F)(F)F)c(F)c3)nc2C)ccc1OCC(=O)O [GW0742] (first compound 2 µM, partner dose 10 µM) | 81 | 87 | 83.5 | 117 | 180 | 90 | 103 | 82.9 | 81.2 | 106 | 83.4 | 93.1 | 114 | 80.8 | 82.5 | 66.8 | 120 | 91.9 | 69.3 |  |
| O=C(O)[C@@H]1[O][Sb](=[O])([O][Sb]2(=[O])[O][C@H]([C@H](O)CO)[C@H](O)[C@H](C(=O)O)[O]2)[O][C@H]([C@H](O)CO)[C@@H]1O (some centres not stated) [stibogluconate] + Cc1cc(SCc2sc(-c3ccc(C(F)(F)F)c(F)c3)nc2C)ccc1OCC(=O)O [GW0742] (first compound 10 µM, partner dose 10 µM) | 122 | 106 | 89.8 | 145 | 112 | 85 | 104 | 96.2 | 149 | 140 | 101 | 117 | 112 | 99.2 | 110 | 102 | 110 | 97.9 | 95 |  |
| C=CCNC1=C2C[C@@H](C)C[C@H](OC)[C@H](O)[C@@H](C)/C=C(\C)[C@H](OC(N)=O)[C@@H](OC)/C=C\C=C(/C)C(=O)NC(=CC1=O)C2=O [Tanespimycin] + O=C(Oc1ccc([N+](=O)[O-])cc1)N1CCC(C(O)(c2ccc3c(c2)OCO3)c2ccc3c(c2)OCO3)CC1 [JZL184] (first compound 0.01 µM, partner dose 5 µM) | 83 | 90.9 | 52.8 | 76.7 | 137 | 88.2 | 133 | 66.7 | 23.6 | 91.9 | 71.5 | 105 | 97.6 | 62 | 96.2 | 35 | 47.5 | 83.5 | 71.8 |  |
| Cc1cc(Nc2cc(N3CCN(C)CC3)nc(/C=C/c3ccccc3)n2)n[nH]1 + Cc1cc(SCc2sc(-c3ccc(C(F)(F)F)c(F)c3)nc2C)ccc1OCC(=O)O [GW0742] (first compound 0.2 µM, partner dose 10 µM) | 101 | 115 | 99.7 | 91.2 | 103 | 107 | 105 | 87.9 | 103 | 94.3 | 74.8 | 102 | 109 | 72.4 | 102 | 73.3 | 97.8 | 74.3 | 101 |  |
| N#CC[C@H](C1CCCC1)n1cc(-c2ncnc3[nH]ccc23)cn1 [ruxolitinib] + C/C(O)=C(\C#N)C(=O)Nc1cc(Br)ccc1Br [LFM-A13] (first compound 5 µM, partner dose 10 µM) | 64.6 | 92.4 | 90.9 | 128 | 130 | 75.2 | 64.1 | 75.1 | 63.1 | 104 | 82.6 | 99.7 | 125 | 65.7 | 83.3 | 93.6 | 105 | 72.3 | 87.1 |  |
| CC(=O)c1c(C)c2cnc(Nc3ccc(N4CCNCC4)cn3)nc2n(C2CCCC2)c1=O [palbociclib] + O=C(Oc1ccc([N+](=O)[O-])cc1)N1CCC(C(O)(c2ccc3c(c2)OCO3)c2ccc3c(c2)OCO3)CC1 [JZL184] (first compound 0.2 µM, partner dose 5 µM) | 78.6 | 79 | 72.8 | 75 | 80 | 79.4 | 68.1 | 63.3 | 69.7 | 70.1 | 53.7 | 72.6 | 76.8 | 56.1 | 78.4 | 49.3 | 61.4 | 40.5 | 51.7 |  |
| O=c1[nH]nc(Sc2ncc([N+](=O)[O-])s2)n1-c1ccc2c(c1)OCCO2 + C[C@]12O[C@H](C[C@]1(O)CO)n1c3ccccc3c3c4c(c5c6ccccc6n2c5c31)CNC4=O [Lestaurtinib] (first compound 1 µM, partner dose 0.02 µM) | 94.9 | 83.2 | 113 |  | 96.4 | 82.7 |  | 79.8 | 134 | 96.3 | 49.9 | 107 | 72.1 | 57.4 | 102 | 79.1 | 69 | 101 | 66.3 | 102 |
| CCCS(=O)(=O)Nc1ccc(F)c(C(=O)c2c[nH]c3ncc(Cl)cc23)c1F + Cc1cc(SCc2sc(-c3ccc(C(F)(F)F)c(F)c3)nc2C)ccc1OCC(=O)O [GW0742] (first compound 0.4 µM, partner dose 10 µM) | 69.7 | 75.3 | 84 | 97.1 | 112 | 81.8 | 64.1 | 93 | 101 | 68.7 | 52.9 | 83.2 | 92.1 | 77.9 | 90 | 55.9 | 60.3 | 79.4 | 51.4 |  |
| N#CC[C@H](C1CCCC1)n1cc(-c2ncnc3[nH]ccc23)cn1 [ruxolitinib] + Cc1cc(SCc2sc(-c3ccc(C(F)(F)F)c(F)c3)nc2C)ccc1OCC(=O)O [GW0742] (first compound 5 µM, partner dose 10 µM) | 70.2 | 95 | 80.3 | 109 | 100 | 67.3 | 79.9 | 81.4 | 70.8 | 86 | 88.8 | 95.7 | 104 | 64 | 78 | 104 | 112 | 78.6 | 106 |  |
| COc1cc([C@@H]2c3cc4c(cc3[C@@H](O[C@@H]3O[C@@H]5CO[C@@H](C)O[C@H]5[C@H](O)[C@H]3O)[C@H]3COC(=O)[C@H]23)OCO4)cc(OC)c1O [etoposide] + C/C(O)=C(\C#N)C(=O)Nc1cc(Br)ccc1Br [LFM-A13] (first compound 0.1 µM, partner dose 10 µM) | 94.6 | 81.1 | 97.9 | 95.2 | 123 | 83.1 | 75.5 | 74 | 79.1 | 121 | 81.2 | 72.8 | 86.8 | 88.2 | 88.1 | 68.7 | 91.3 | 69.1 | 84.1 |  |
